About 230 (0.21%) of roughly 110,000 compounds showed an effect of 50% or more. Some of the results follow.
The compounds below were run against DPAP1 (Plasmodium falciparum, UniProt Q8IIJ9) (assay: primary screen, percent inhibition; read by cleavage of a fluorogenic dipeptide substrate; higher = more effect of the substance).
Design: species or system P. falciparum D10 trophozoite lysates; single well
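Note: 30 min substrate incubation versus DMSO and 10 µM JCP410 controls.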

Sequence of DPAP1 (Q8IIJ9 whole entry, looked up): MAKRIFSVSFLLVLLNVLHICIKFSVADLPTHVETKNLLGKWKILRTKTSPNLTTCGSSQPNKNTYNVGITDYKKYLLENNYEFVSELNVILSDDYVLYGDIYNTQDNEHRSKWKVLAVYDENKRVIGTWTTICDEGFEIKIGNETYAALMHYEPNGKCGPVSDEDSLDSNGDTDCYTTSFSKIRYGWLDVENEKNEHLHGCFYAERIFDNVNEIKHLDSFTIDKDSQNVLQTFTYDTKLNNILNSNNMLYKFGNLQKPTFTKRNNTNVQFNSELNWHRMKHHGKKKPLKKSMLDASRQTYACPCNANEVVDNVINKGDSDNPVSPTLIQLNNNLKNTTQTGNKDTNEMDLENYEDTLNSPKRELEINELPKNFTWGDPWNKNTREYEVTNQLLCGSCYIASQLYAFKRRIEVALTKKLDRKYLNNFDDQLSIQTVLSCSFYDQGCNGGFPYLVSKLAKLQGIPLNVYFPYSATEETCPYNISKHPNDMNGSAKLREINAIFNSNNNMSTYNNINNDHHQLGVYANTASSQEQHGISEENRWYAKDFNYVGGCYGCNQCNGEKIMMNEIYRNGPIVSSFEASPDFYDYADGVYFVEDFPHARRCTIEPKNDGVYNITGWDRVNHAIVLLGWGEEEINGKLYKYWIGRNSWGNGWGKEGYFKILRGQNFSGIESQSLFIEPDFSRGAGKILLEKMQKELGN

| SMILES | % Inhibition @ 10 uM [%] |
| --- | --- |
| CCCCN(CC)CCCNC(=O)Cn1ncc2c1-c1cc(C)ccc1OC2 | -2.67 |
| COc1nc(Nc2ccccc2)nc(N2CCCC2)n1 | -4.23 |
| Cc1c(C(=O)N(C)Cc2ccccc2)sc2nc3n(c(=O)c12)CCCCC3 | 2.07 |
| CC1=C(C(=O)OCC2CCCO2)C(c2ccc(Cl)c(Cl)c2)NC(=O)N1 (stereo not shown) | -8.85 |
| CCc1ccc2ncc(S(=O)(=O)c3ccccc3)c(N3CCC4(CC3)OCCO4)c2c1 | -8.57 |
| COc1ccc(-n2c(S)nnc2-c2cc(OC)c(OC)c(OC)c2)cc1 | 3.61 |
| COc1ccccc1Cc1nc(-c2ccncc2)no1 | -1.68 |
| CCOc1ccc(C(=O)C2=C(O)C(=O)N(CCCN3CCOCC3)C2c2ccc(C)cc2)cc1C (stereo not shown) | 3.15 |
| Cc1ccc(N2CCN(S(=O)(=O)N3CCOCC3)CC2)cc1Cl | 0.389 |
| O=C(CN(Cc1ccccc1)S(=O)(=O)c1cc(Cl)ccc1Cl)NCc1ccco1 | -5.35 |
| O=C(Nc1cccc(C(F)(F)F)c1)/C(=C/c1ccco1)NC(=O)c1cccs1 | -0.958 |
| CCOc1ccc(CCNC(=O)c2oc3ccc4c(c3c2C)C(O)CC(C)(C)O4)cc1OCC (stereo not shown) | 2.32 |
| O=C(NCCCN1CCC(Cc2ccccc2)CC1)c1nnc(Cc2ccc3c(c2)OCO3)o1 | 3.99 |
| O=c1oc(-c2ccccc2Cl)nc2c1cnn2-c1ccccc1 | 5.04 |
| OC(c1ccccc1)c1nc2ccccc2n1-c1ccccc1 (stereo not shown) | -1.15 |
| Cc1ccc(C)c(CSc2nncn3c2cc2occc23)c1 | 0.616 |
| CC(C(=O)Nc1c2c(cc3c1CCC3)CCC2)N1CCCC1 (stereo not shown) | -1.61 |
| Cc1onc(-c2c(Cl)cccc2Cl)c1C(=O)Nc1nccs1 | -3.04 |
| Cc1ccnc(NC(=O)c2cnn(-c3ccccc3)c2-n2cccc2)c1 | -6.3 |
| Cn1nc(C(=O)NCCN2CCC(Cc3ccccc3)CC2)c2c1-c1ccccc1OC2 | 8.81 |
| CCC(NC(=O)c1ccc(OC)c(OC)c1)c1ccccc1 (stereo not shown) | -2.19 |
| Cc1onc(-c2ccccc2)c1C(=O)Nc1ccccc1C(F)(F)F | -5.49 |
| COc1ccc(NC(=O)c2ccc(OC)c(OC)c2)cc1OC | -4.58 |
| Oc1ccccc1-c1nc2ccccc2[nH]1 | -0.771 |
| O=C1CC(c2cccs2)Sc2ccccc2N1 (stereo not shown) | 2.87 |
| Nc1cc(-c2ccc(Br)cc2)no1 | 0.66 |
| c1ccc2[nH]c(Sc3nc4ccccc4n4cnnc34)nc2c1 | 7.74 |
| CCN(CC)S(=O)(=O)N1CCC(C(=O)NCCc2ccccc2)CC1 | 1.16 |

From paper PMC6919601, “Identification of Plasmodium dipeptidyl aminopeptidase allosteric inhibitors by high throughput screening” (PLoS ONE, 2019)
